Test results as given in PubChem BioAssay AID686979 (National Center for Advancing Translational Sciences (NCATS), 2013).
Hit rate of the full screen: of about 420,000 compounds, about 50,000 (12%) were called active. The shares of active, inactive and inconclusive entries below differ from those in the screen. Calls follow the shape of the dose curve; as a rule, active = well fitted inhibition curve with a large enough effect; inconclusive = small, poorly fitted or top-dose-only effect; inactive = flat fitted curve, though single readings scatter. No potency is given beside an inconclusive call; the fits are too rough.

Experiment: qHTS for Inhibitors of human tyrosyl-DNA phosphodiesterase 1 (TDP1): qHTS in cells in presence of CPT; also: nearly all actives have a fitted effect of over 55% in size
Conditions: chicken DT40 Tdp1-/-;hTDP1 cells + 20 nM CPT, ATP luminescence, 48 h; activity change, negative = growth inhibition: at 46.2 µM (top of the series)
In short: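 Chicken DT40 Tdp1-/- cells complemented with human TDP1, 400 cells/well, exposed to compounds plus 20 nM camptothecin for at least 48 h at 37 C; viability read as ATP content by CellTiter-Glo luminescence.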
% is scaled to controls: 0 for no effect and ±100 for the full control effect; potency is read from the fitted curve at half-maximal effect; tags tell the direction and shape of the fitted curve.

Structure (SMILES)	Potency	activity change, negative = growth inhibition
CC(C)Sc1oc(-c2ccco2)nc1S(=O)(=O)c1ccc(F)cc1	inconclusive [inhibitor, single point]	
O=Cc1ccc(Oc2cc(-c3ccccc3)nc(-c3ccccc3)n2)cc1	inconclusive [inhibitor, single point]	
CCOc1ccccc1N1CCN(CC(=O)Nc2ncc(C)s2)CC1		inactive: -12.5%
CC(C)n1c(SCC(=O)Nc2nc3c(s2)CCCC3)nc2c1c(=O)n(C)c(=O)n2C	active: 11.6 µM	
COc1ccc(C)cc1NC(=O)COCc1cc(-c2ccc(F)cc2)on1	inconclusive [inhibitor, partial curve]	
CCCOc1cccc(NC(=O)OC2CCN(C)CC2)c1		inactive: 2.7%
Cc1ccc(S(=O)(=O)N2CCOCC2)cc1NC(=O)CNCc1ccccc1Cl	inconclusive [inhibitor, single point]	
CC(=O)OCC1=C(C(=O)O)N2C(=O)C(NC(=O)c3ccc(COc4ccc(Cl)cc4)o3)C2SC1 (stereo not drawn)		inactive: -4.03%
O=C(CCN1CCC2CCC(C2)C1)c1ccccc1 (stereo not drawn)	active: 2.59 µM	
Nc1ccc(-c2cc(NC=O)c3ncc(-c4cccc(C(F)(F)F)c4)n3c2)cn1	active: 16.4 µM	
CC(=O)NC(c1ccc(C(C)C)cc1)c1ccc2cccnc2c1O (stereo not drawn)	active: 2.59 µM	
CCOC(=O)c1c(NC(=O)COC(=O)c2nccnc2N)sc(C(=O)N(C)C)c1C		inactive: -16.8%
CCOC(=O)c1cc(-c2ccccc2)n(CC(=O)Nc2ccc(CC)cc2)c1C	active: 8.2 µM	
O=C(NNC1=C(C(=O)C(F)(F)F)CCC1)c1ccncc1	active: 1.64 µM	
O=C(N/N=C/c1cn(-c2ccccc2)nc1-c1cc2ccccc2o1)c1ccncc1	active: 25.9 µM	
CN(CC(=O)Nc1c(Cl)cccc1Cl)C(=O)c1cc(-c2cccs2)nn1-c1ccccc1	inconclusive [inhibitor, single point]	
Cc1ccc(N2CCN(S(=O)(=O)c3c(C)[nH]c(=O)[nH]c3=O)CC2C)cc1 (stereo not drawn)		inactive: -12.8%
Cc1cccc(NNC(=S)Nc2ccccc2)c1	active: 4.11 µM	
Cc1ccc(OCCNCc2ccccc2)c(C)c1	inconclusive [inhibitor, single point]	
CC1CCCCC1N(C)C1CCN(C(=O)CNC(=O)/C=C/c2cccc(Cl)c2)CC1 (stereo not drawn)	inconclusive [inhibitor, single point]	
Cc1nn(Cc2noc(C(=O)NC(C)c3ccccc3)n2)c(C)c1Br (stereo not drawn)	inconclusive [inhibitor, single point]	
CC(C)C(=O)N1CCCC1(C)C(=O)Nc1ccc(-n2cccc2)cc1 (stereo not drawn)		inactive: 3.72%
COc1cc2ccc(=O)oc2cc1O	inconclusive [inhibitor, single point]	
O=C(NCCc1ccc2c(c1)OCO2)Oc1ccccc1	inconclusive [inhibitor, single point]	

Structure (SMILES)	Potency	activity change, negative = growth inhibition
O=[N+]([O-])c1ccc2nc(SCc3ccccc3Cl)sc2c1	inconclusive [inhibitor, single point]	
CC[C@H](C)[C@H](NC(=O)c1ccccc1)C(=O)NC(CC(=O)O)c1ccc(F)cc1 (stereo partly drawn)		inactive: 0.456%
CCOC(=O)C(C(=O)OCC)C(c1ccccc1)N1CCN(c2ccccc2)CC1 (stereo not drawn)	inconclusive [inhibitor, single point]	
COc1ccc(OC)c(CCNC(=O)CCn2c(=O)c3cccn3c3ccc(F)cc32)c1	inconclusive [inhibitor, full curve]	
O=C(NCCN1CCCC1=O)C1CCC(=O)N(CCc2cccc(F)c2)C1 (stereo not drawn)		inactive: 5.29%
Cc1c(C)n(C)c2ccc(C(=O)NCCCN(C)C3CCCCC3)cc12	inconclusive [inhibitor, single point]	
CCCCn1c(N)c(N(CC(C)C)C(=O)c2ccc(N3C(=O)CCC3=O)cc2)c(=O)[nH]c1=O		inactive: 1.57%
O=C(Cc1ccccc1)c1nc2ccccc2s1	inconclusive [inhibitor, single point]	
COc1cc(/C=C/C(=O)Nc2nnc(C(C)(C)C)s2)cc(OC)c1OC	inconclusive [inhibitor, single point]	
COC(=O)Cc1ccc(N(Cc2ccccc2F)S(=O)(=O)c2ccc(Cl)cc2)cc1	inconclusive [inhibitor, partial curve]	
Cc1cc(/C=N\NC(=O)COc2cccc3cccnc23)c(C)n1-c1ccc(Br)cc1	inconclusive [inhibitor, single point]	
Cc1ccccc1C(=O)NC1CCN(Cc2ccccc2)CC1		inactive: -0.262%
Cc1ccc(S(=O)(=O)N2CCCC(C(=O)Nc3ccc(NC(=O)c4ccccn4)cc3)C2)cc1 (stereo not drawn)	inconclusive [inhibitor, single point]	
COc1ccccc1-n1c(SCC(=O)NC2CC2)nc2ccccc2c1=O	inconclusive [inhibitor, single point]	
CC(C)(C)OC(=O)NCCCC[C@H](NC(=O)c1[nH]cnc1C(=O)Nc1ccccc1)C(=O)OC(C)(C)C	active: 14.6 µM	
Nc1c(N(Cc2ccco2)C(=O)COc2ccccc2Cl)c(=O)[nH]c(=O)n1Cc1ccccc1		inactive: -5.8%
CN(C)c1ccc(C2N(C)C(=O)c3ccccc3N2C)cc1 (stereo not drawn)		inactive: -15.1%
O=C1CCC[C@@H]2C[C@@]3(C[C@@H]4CCN1[C@H]24)Nc1cc(Cl)c(Cl)cc1NC3=NCc1ccccc1	active: 18.4 µM	
COc1ccc(C2C(=O)c3ccccc3C2=O)c(OC)c1		inactive: -7.35%
Fc1ccc(Nc2nc(-c3ccncc3)nc3ccccc23)cc1	inconclusive [inhibitor, partial curve]	
CCOc1cc(NC(=S)Nc2cccc(C)c2)c(OCC)cc1NC(=O)CC(C)C	inconclusive [inhibitor, partial curve]	
COc1ccccc1C(=O)Nc1c(C(=O)N2CCN(C)CC2)oc2ccccc12		inactive: -24.6%
CCOC(=O)CC(=O)CSc1nc2c(sc(=S)n2-c2ccc(OCC)cc2)c(=O)[nH]1		inactive: -10.8%
CS(=O)(=O)c1ccc(-c2cc(NC=O)c3ncc(-c4ccc(F)cc4)n3c2)cc1	active: 23.1 µM	
